{"source": "PubChem BioAssay AID651820", "about": "(National Center for Advancing Translational Sciences (NCATS), 2012)", "note": "Screen size: about 340,000 compounds; about 12,000 (3.5%) were called active. The inconclusive results got no clear call from the source; some entries with a clear call stand among them for comparison. Calls come from the whole dose curve; as a rule, active = well fitted inhibition curve with a large enough effect; inconclusive = small, poorly fitted or top-dose-only effect, or another doubt; inactive = no such curve, though single readings can be large or run the other way. No potency is given beside an inconclusive call; the fits are too rough. Potency is the fitted concentration of half-maximal effect; tags give direction and shape of the fitted curve.", "data": [{"test": "qHTS Assay for Inhibitors of Hepatitis C Virus (HCV)", "conditions": "Huh7.5.1 HCVcc-Cre (HCVcc is cell-culture hepatitis C virus) infection, luciferase reporter, 44 h; series mostly up to 41.8 µM", "outline": "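A cell-based infection assay in which seeded cells (1,000 per well) receive test compound after 4 h, are inoculated with HCVcc-Cre at approximately 0.5 moi, and are incubated 44 h before luminescence detection.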", "values": [{"smiles": "CN1CCN(S(=O)(=O)c2ccc(NC(=O)c3csc4ccccc34)cc2)CC1", "Potency": "active: 10 µM"}, {"smiles": "CCCn1c(SCC(=O)N2c3ccccc3CCc3ccccc32)nc2c1c(=O)n(C)c(=O)n2C", "Potency": "inconclusive [inhibitor, single point]"}, {"smiles": "C/C(=N\\NC(=O)c1ccccn1)c1ccc(Cl)cc1", "Potency": "inactive"}, {"smiles": "COc1ccc(NC(=S)NC2CC3CCC2C3)c(OC)c1", "note": "(stereo unspecified)", "Potency": "inactive"}, {"smiles": "Cc1c(OCC(=O)N2CCC(C(=O)NCCCC(=O)O)CC2)ccc2c1oc(=O)c1ccccc12", "Potency": "inconclusive [inhibitor, single point]"}, {"smiles": "Fc1ccc(CNC(=S)NC2CCCCC2)cc1", "Potency": "inconclusive [inhibitor, single point]"}, {"smiles": "CC(C)=C[C@@H]1C[C@H](C)[C@H]2CC[C@H](C)c3c(O[C@@H]4O[C@@H](C)[C@@H](O)[C@@H](O)[C@@H]4O)c(O)c(C)c1c32", "Potency": "inconclusive [inhibitor, single point]"}, {"smiles": "CCCn1nc2cc(C(=O)NCCc3cccs3)ccc2c1OCC", "Potency": "inconclusive [inhibitor, partial curve]"}, {"smiles": "O=C(COc1ccccc1)Nc1ccc(-c2nnc(-c3ccco3)o2)cc1", "Potency": "inactive"}, {"smiles": "O=[N+]([O-])c1cc(C(F)(F)F)cc([N+](=O)[O-])c1NCCN1CCNCC1", "Potency": "inconclusive [inhibitor, partial curve]"}, {"smiles": "CC1=CC2=NC(=O)/C(=C\\c3cccn3CCOc3cc(C)cc(C)c3)C(=N)N2O1", "Potency": "inconclusive [inhibitor, partial curve]"}, {"smiles": "CC1(C)C(=O)Nc2ccccc2N1C(=O)COC(=O)c1ccc(NC(N)=O)cc1", "Potency": "inconclusive [inhibitor, single point]"}, {"smiles": "CN(C)C(=O)Nc1cnc2ccccc2c1", "Potency": "inactive"}, {"smiles": "CC(=O)O[C@@H]1[C@@]2(C)O[C@H]2CC[C@]23O[C@H]2[C@H](OC3=O)C2=C(C)C(=O)O[C@@]21O", "Potency": "inconclusive [inhibitor, single point]"}, {"smiles": "Cc1ccc(S(=O)(=O)N2CCN(C(=O)COC(=O)COc3cccc4c3OC(C)(C)C4)CC2)cc1", "Potency": "inactive"}, {"smiles": "CC(=O)c1ccc(N2CCN(C(=O)Nc3ccc(Cl)cc3)CC2)cc1", "Potency": "inconclusive [inhibitor, partial curve]"}, {"smiles": "COCCn1c(N2CCN(c3ccccc3)CC2)nc2c1c(=O)n(C)c(=O)n2C", "Potency": "inconclusive [inhibitor, full curve, poor fit]"}, {"smiles": "Cc1cc2c(=O)n(Cc3ccco3)c(SCC(=O)N3CCCc4ccccc43)nc2s1", "Potency": "inconclusive [inhibitor, full curve]"}, {"smiles": "CC1Cc2ccccc2N1S(=O)(=O)c1cccc(C(=O)NCc2ccccn2)c1", "note": "(stereo unspecified)", "Potency": "inconclusive [inhibitor, single point]"}, {"smiles": "CC1(C)Cc2c(sc(N)c2C#N)C(C)(C)N1", "Potency": "inactive"}, {"smiles": "CN(C)c1ccc(/C=N\\NC(=O)c2ccc(Cn3cc(Cl)cn3)cc2)cc1", "Potency": "inconclusive [inhibitor, partial curve]"}, {"smiles": "COc1ccc(CNC(=O)c2cnn3c(C(F)F)cc(C)nc23)cc1OC", "Potency": "active: 10 µM"}, {"smiles": "Cc1cccc(C)c1OCc1nnc(SCC(=O)Nc2cccc(C(=O)N3CCOCC3)c2)n1C", "Potency": "inconclusive [inhibitor, single point]"}, {"smiles": "CN1CCN(C/C(=C2/N=C(c3ccccc3)OC2=O)N(C)C)CC1", "Potency": "inconclusive [inhibitor, single point]"}, {"smiles": "Cc1ccc(N(CC(=O)NC2CCCCC2)C(=O)c2ccc(C)s2)cc1", "Potency": "inconclusive [inhibitor, partial curve]"}, {"smiles": "Cc1c(/C(O)=C2/C(=O)C(=O)N(CCN3CCOCC3)C2c2ccccn2)cnn1-c1ccccc1", "note": "(stereo unspecified)", "Potency": "inactive"}, {"smiles": "CC(C)(C)c1cc(CN2CCOCC2)c(C(=O)O)o1", "Potency": "inactive"}, {"smiles": "COc1ccc(NC(=S)Nc2ccc(C)c(S(=O)(=O)N3CCCCC3)c2)cc1", "Potency": "inconclusive [inhibitor, partial curve]"}, {"smiles": "CC(C)CN(C(=O)c1ccc(=O)n(C)n1)c1nc2ccccc2s1", "Potency": "inactive"}, {"smiles": "O=C(NC(=S)Nc1ccc(C(=O)N2CCOCC2)cc1)c1ccc([N+](=O)[O-])cc1", "Potency": "inconclusive [inhibitor, single point]"}, {"smiles": "COc1ccc(CN(C(=O)c2snc(C(N)=O)c2N)C(C(=O)NC2CCCC2)c2ccc(OC)cc2)cc1", "note": "(stereo unspecified)", "Potency": "inconclusive [inhibitor, single point]"}, {"smiles": "COc1ccc2sc(-c3ccc(S(C)(=O)=O)cc3)c(-c3ccc4c(c3)OCCO4)c2c1", "Potency": "inconclusive [inhibitor, full curve]"}, {"smiles": "Cc1ccc(C(=O)Nc2ncc3c(Cl)cccc3n2)cc1", "Potency": "inactive"}, {"smiles": "O=C(c1ccc(Cn2c(=O)[nH]c3ccccc3c2=O)cc1)N1CCN(c2ccc(F)cc2)CC1", "Potency": "inconclusive [inhibitor, single point]"}, {"smiles": "CCCCN(C)S(=O)(=O)c1cc(Br)cc2c1N(C(=O)C1CC1)CC2", "Potency": "inconclusive [inhibitor, partial curve]"}, {"smiles": "Cn1c(-c2ccc(Cl)cc2)cnc1NCc1cc2c(cc1[N+](=O)[O-])OCO2", "Potency": "inconclusive [inhibitor, single point]"}, {"smiles": "Cc1cc(C)c(S(=O)(=O)N2CCC(C(=O)OCc3c(C)noc3C)CC2)c(C)c1", "Potency": "inconclusive [inhibitor, partial curve]"}, {"smiles": "Cc1nn(C(C)C(=O)NCCC2=CCCCC2)c(=O)c2nn(-c3ccccc3)c(C)c12", "note": "(stereo unspecified)", "Potency": "inconclusive [inhibitor, single point]"}, {"smiles": "O=C(Nc1nnc(SCc2ccccn2)s1)C1CC(=O)N(c2ccc(F)cc2)C1", "note": "(stereo unspecified)", "Potency": "inactive"}, {"smiles": "O=C(COC(=O)c1ccc(Cl)nc1)Nc1cccnc1Cl", "Potency": "inactive"}, {"smiles": "Cc1ccc(C(=O)OCC(=O)Nc2cc(C(C)(C)C)no2)c(C)c1", "Potency": "inactive"}, {"smiles": "COc1ccc(NC(C)=O)cc1S(=O)(=O)NC(C)c1ccc(-n2ccnc2)cc1", "note": "(stereo unspecified)", "Potency": "inconclusive [inhibitor, single point]"}, {"smiles": "COc1ccc(-c2noc(N(C)CC(=O)Nc3cccc(C(F)(F)F)c3)n2)cc1", "Potency": "active: 11.2 µM"}, {"smiles": "CCN(C(=O)C(C)OC(=O)CCCNC(=O)c1ccc(Cl)cc1)c1ccccc1", "note": "(stereo unspecified)", "Potency": "inconclusive [inhibitor, full curve, poor fit]"}, {"smiles": "Cc1ccc(NC(=O)c2cc(NC(=O)c3ccco3)ccc2N2CCCCC2)cc1", "Potency": "inconclusive [inhibitor, full curve, poor fit]"}, {"smiles": "COc1ccc(NC(=O)C23CC4CC(C2)CC(n2cnc(Br)n2)(C4)C3)cc1OC", "Potency": "inconclusive [inhibitor, single point]"}, {"smiles": "COc1ccc2[nH]c(C)c(CCN(Cc3cccs3)C(=S)Nc3ccc(F)cc3)c2c1", "Potency": "active: 11.2 µM"}, {"smiles": "O=C(C[C@H]1C/C=C\\CC[C@H](Cc2ccc(F)cc2)C(=O)OC[C@H]2CCCN2C1=O)NCCO", "Potency": "inconclusive [inhibitor, single point]"}, {"smiles": "CC1=NN(c2ccccc2)C(=O)/C1=C\\c1cn(C)c2ccccc12", "Potency": "inconclusive [inhibitor, single point]"}, {"smiles": "Cc1ccc(OCCCCCCN2CCNCC2)c(Br)c1", "Potency": "inconclusive [inhibitor, partial curve]"}, {"smiles": "COC(=O)[C@@H](NCc1cccc(CN[C@H](C(=O)OC)c2ccccc2)c1)c1ccccc1", "Potency": "inconclusive [inhibitor, single point]"}, {"smiles": "CCCCCCOC1(c2ccccc2)OC(=O)c2ccccc21", "note": "(stereo unspecified)", "Potency": "inconclusive [inhibitor, single point]"}, {"smiles": "O=C(Nc1nnc(CCS(=O)(=O)c2ccc3ccccc3c2)s1)c1cccs1", "Potency": "inconclusive [inhibitor, single point]"}, {"smiles": "O=C(N/N=C/c1ccc2c(c1)OCO2)c1cc(-c2ccco2)nc2ccccc12", "Potency": "inconclusive [inhibitor, full curve]"}, {"smiles": "CCN(CC)S(=O)(=O)c1cccc(NC(=O)c2ccc(Br)cc2)c1", "Potency": "active: 8.91 µM"}, {"smiles": "COc1ccc(C(=O)c2c(C)oc3ccc(O)cc23)c(OC)c1", "Potency": "inconclusive [inhibitor, full curve, poor fit]"}, {"smiles": "Cc1ccc(C)c(NC(=O)Cn2nnc(-c3ccc(N4CCOCC4)cc3)n2)c1", "Potency": "inactive"}, {"smiles": "CC(=O)NC1C(=O)N=C(SCC(=O)Nc2ccc(C(F)(F)F)cc2Cl)NC1=O", "note": "(stereo unspecified)", "Potency": "inconclusive [inhibitor, single point]"}, {"smiles": "CC(=O)Nc1ccccc1OCc1cnc(Cl)s1", "Potency": "inactive"}, {"smiles": "COCCn1nnnc1C(c1ccc(OC)cc1OC)N1CCN(c2ccccc2)CC1", "note": "(stereo unspecified)", "Potency": "inactive"}, {"smiles": "COc1ccc(C(=O)N/N=C/c2ccc(OC(=O)c3cccc4ccccc34)c([N+](=O)[O-])c2)cc1", "Potency": "inconclusive [inhibitor, single point]"}, {"smiles": "CCc1cc2c(=O)[nH]c(-c3ccccn3)nc2s1", "Potency": "inconclusive [inhibitor, partial curve]"}, {"smiles": "O=C(CCS(=O)(=O)c1ccc(F)cc1)Nc1nc(-c2ccncc2)cs1", "Potency": "inactive"}, {"smiles": "COc1ccc(N(CC(=O)Nc2c(C)n(C)n(-c3ccccc3)c2=O)S(=O)(=O)c2ccc(F)cc2)cc1", "Potency": "inactive"}, {"smiles": "CCNC(=S)N(CCc1c(C)[nH]c2ccc(C)cc12)Cc1cc(OC)c(OC)c(OC)c1", "Potency": "inconclusive [inhibitor, full curve, poor fit]"}, {"smiles": "O=C(CSc1nnc(C23CC4CC(CC(C4)C2)C3)o1)Nc1ccc(N2CCOCC2)c(Cl)c1", "Potency": "inconclusive [inhibitor, single point]"}]}]}
